Experimental data from PubChem BioAssay AID624296 (National Center for Advancing Translational Sciences (NCATS), 2012).
In all, about 350,000 compounds went through this assay and about 9,900 (2.8%) were called active. Inconclusive means that the source gave no clear call. Such entries were picked first, then a sample of the others. The call rests on the fitted dose curve; in most records, active means well fitted activation curve with a large enough effect; inconclusive means small, poorly fitted or top-dose-only effect; inactive means no such curve, though single readings can be large or run the other way. No potency is given beside an inconclusive call; the fits are too rough.

experiment: A quantitative high throughput screen for small molecules that induce DNA re-replication in MCF 10a normal breast cells.; further: nearly all actives have a fitted effect of over 50% in size; on activity, positive = re-replication: % of control where 0% means no effect; conditions: MCF 10A DNA re-replication, Hoechst nuclear intensity, 48 h; activity, positive = re-replication: at 46.1 µM (top of the series)
Potency means the concentration at half of the fitted maximal effect; tags describe the fitted curve by direction and shape.

Q: Which “activity, positive = re-replication” value does the source give for CC1CC(C)CN(C(=O)CCc2ccccc2)C1 (stereo unspecified) here?
A: The value was inactive: 7.2%.

Q: Which “activity, positive = re-replication” value does the source give for Cc1ccccc1C(=O)Nc1ccc(N2CCCC2)cc1 here?
A: Its value is inactive: 0.25%.

Q: For Nc1nc(-c2ccccc2)cn1/N=C/c1ccccc1, which Potency is on record?
A: Its Potency is inconclusive [activator, single point].

Q: For COc1ccc(N2CCN(C(=O)COC(=O)c3cccc(S(=O)(=O)Nc4cccc(C)c4)c3)CC2)cc1, which “activity, positive = re-replication” value is on record?
A: The value was inactive: 2.46%.

Q: For CCCCNC(=O)C1CCC(CNc2nc(=S)[nH]c3ccccc23)CC1 (stereo unspecified), which Potency is on record?
A: Its Potency is inconclusive [activator, partial curve, poor fit].

Q: For COc1ccc2c(c1)OC(=O)CC2c1ccccc1OC (stereo unspecified), which Potency is on record?
A: Its Potency is inconclusive [activator, single point].

Q: For Nc1nc(N)c2ncc(C(=O)CCc3ccccc3)nc2n1, which Potency is on record?
A: The Potency was inconclusive [activator, single point].

Q: With CC1(C)CC(=O)c2cc(OCC(=O)NCCN3CCCc4ccccc43)ccc2O1 as the compound, how does the Potency read?
A: Its Potency is inconclusive [activator, full curve, poor fit].

Q: With CN(C)NC(=S)Nc1ccc(S(=O)(=O)N2CCCCC2)cc1 as the compound, how does the “activity, positive = re-replication” value read?
A: Its value is inactive: -6.15%.

Q: Which “activity, positive = re-replication” value does the source give for COc1ccc(CN(C)C(=O)c2ccc3c(=O)n4c(nc3c2)CCC4)cc1 here?
A: Its value is inactive: 0.191%.

Q: For COC(=O)N1C(=O)[C@](Cc2ccccc2)(c2ccccc2)N1C(=O)OC, which Potency is on record?
A: The Potency was inconclusive [activator, partial curve, poor fit].

Q: Which Potency does the source give for CCOc1ccc(S(=O)(=O)Nc2ccc(F)cc2)c(C)c1C here?
A: The Potency was inconclusive [activator, single point].

Q: For Cc1ccc(CNC(=O)Nc2ccc(F)cc2)n1C, which “activity, positive = re-replication” value is on record?
A: Its value is inactive: -2.36%.

Q: For Cc1ccc(CN2C(=O)[C@H]3Cc4c([nH]c5ccccc45)C(C)(C)N3C2=O)cc1, which Potency is on record?
A: The Potency was active: 20.6 µM.

Q: With CC(C)(C)C(=O)NCCCc1nc2ccccc2n1CCCOc1ccc(Cl)cc1 as the compound, how does the Potency read?
A: Its Potency is inconclusive [activator, single point].

Q: Which Potency does the source give for O=C1NC[C@@H](Cc2cccc3ccccc23)N(CCC23CC4CC(CC(C4)C2)C3)C1=O here?
A: Its Potency is inconclusive [activator, single point].

Q: Which “activity, positive = re-replication” value does the source give for Cc1cc(S(=O)(=O)N2CCC(NC(=O)C34CC5CC(CC(C5)C3)C4)CC2)ccc1-n1cnnn1 here?
A: The value was inactive: -1.31%.

Q: With O=C(NCC1CCCO1)NC1(C(F)(F)F)Oc2ccccc2O1 (stereo unspecified) as the compound, how does the Potency read?
A: Its Potency is inconclusive [activator, partial curve].

Q: Which Potency does the source give for CC(C)C(NC(=O)COc1ccc2ccccc2c1)C(=O)N/N=C/C=C/c1ccccc1 (stereo unspecified) here?
A: Its Potency is inconclusive [activator, single point].

Q: For Cn1ncc(C#N)c1NC(=O)C1CC(c2ccc(Cl)cc2)=NO1 (stereo unspecified), which activity, positive = re-replication is on record?
A: The activity, positive = re-replication was inconclusive: 28.6% [activator].

Q: With CCC[C@@H]1O[C@@H]2C[C@@H]3[C@H]4CCC5=CC(=O)C=C[C@@]5(C)[C@H]4[C@H](O)C[C@@]3(C)[C@@]2(C(=O)CO)O1 as the compound, how does the “activity, positive = re-replication” value read?
A: The value was inactive: 2.64%.

Q: Which “activity, positive = re-replication” value does the source give for N=C(N)c1ccc(Cl)cc1 here?
A: Its value is inactive: 27.8%.

Q: Which “activity, positive = re-replication” value does the source give for O=C(NC1CCCCC1)N(Cc1cc2cc3c(cc2[nH]c1=O)OCCO3)C1CCCCC1 here?
A: Its value is inactive: 0.311%.

Q: For Cc1cccc2cc3c(nc12)-c1ccccc1C3=O, which Potency is on record?
A: The Potency was inconclusive [activator, single point].

Q: Which Potency does the source give for Cc1ccc(Nc2nc(N3CCOCC3)c3ccccc3n2)cc1 here?
A: The Potency was inconclusive [activator, single point].

Q: For COC(=O)CCCC(=O)N1CCCC(C(=O)c2ccc(OC)cc2C)C1 (stereo unspecified), which Potency is on record?
A: Its Potency is inconclusive [activator, single point].

Q: For CN1CCCN(Cc2ccccc2C(F)(F)F)CC1, which Potency is on record?
A: The Potency was inconclusive [activator, full curve, poor fit].

Q: With CCOc1cc(C=NN=C2c3ccccc3-c3ccccc32)ccc1O as the compound, how does the Potency read?
A: The Potency was inconclusive [activator, single point].

Q: For Cc1cccc(N(C(=O)C(F)(F)F)C(C(=O)NC2CCCCC2)c2cccs2)c1 (stereo unspecified), which Potency is on record?
A: The Potency was inconclusive [activator, single point].

Q: With O=S(=O)(c1ccc(NC(=S)N/N=C/c2ccc(N3CCOCC3)cc2)cc1)N1CCOCC1 as the compound, how does the Potency read?
A: The Potency was inconclusive [activator, single point].

Q: For O=[N+]([O-])c1ccc(/C=[N+](\[O-])[C@@H]2CCCC[C@@H]2/[N+]([O-])=C/c2ccc([N+](=O)[O-])o2)o1, which Potency is on record?
A: Its Potency is active: 23.1 µM.

Q: With O=C(NC(=S)NNC(=O)[C@H]1C[C@@H]1c1ccccc1)c1ccc(F)cc1 as the compound, how does the Potency read?
A: The Potency was inconclusive [activator, partial curve, poor fit].

Q: With CC(C)CNC(=S)NNC(=O)CC(C)O (stereo unspecified) as the compound, how does the Potency read?
A: The Potency was inconclusive [activator, single point].

Q: With Cc1ccc(Nc2nc(N)nc(-c3oc4ccccc4c3C)n2)cc1 as the compound, how does the Potency read?
A: The Potency was inconclusive [activator, partial curve, poor fit].

Q: Which Potency does the source give for CC(=O)Nc1ccc(Oc2cc(NC(C)=O)cc([N+](=O)[O-])c2)cc1 here?
A: Its Potency is inconclusive [activator, single point].

Q: For CN(C)c1ccc(/C=N/NC(=O)c2ccc(Cl)cc2)cc1, which Potency is on record?
A: Its Potency is inconclusive [activator, single point].

Q: Which “activity, positive = re-replication” value does the source give for CC1(C)CC[C@]2(C(=O)O)CC[C@]3(C)C(=CC[C@@H]4[C@@]5(C)CC[C@H](O)C(C)(C)[C@@H]5CC[C@]43C)[C@@H]2C1 here?
A: The value was inactive: -5.58%.

Q: With Cc1cccc(N2CCN(C(=O)c3ccc4c(c3)c(C)c(C)n4C)CC2C)c1 (stereo unspecified) as the compound, how does the Potency read?
A: The Potency was inconclusive [activator, single point].

Q: For COc1ccccc1NC(=O)Cn1cncc1-c1ccc([N+](=O)[O-])cc1, which Potency is on record?
A: The Potency was inconclusive [activator, partial curve, poor fit].

Q: Which “activity, positive = re-replication” value does the source give for O=C1C(C=NCCCN2CCOCC2)=C(O)c2ccccc21 here?
A: Its value is inactive: 2.32%.

Q: With O=C(c1ccccc1)c1ccc(-c2ccc(O)cc2)cc1 as the compound, how does the Potency read?
A: The Potency was active: 23.1 µM.

Q: Which “activity, positive = re-replication” value does the source give for Cc1c(Cl)cccc1NC(=O)CSCC(N)=O here?
A: The value was inactive: 6.04%.

Q: With CCCCc1c(O)nc(SCC(=O)c2ccccc2)[nH]c1=O as the compound, how does the Potency read?
A: The Potency was inconclusive [activator, single point].

Q: With COc1nc(Nc2cccc(F)c2)nc(OC)n1 as the compound, how does the “activity, positive = re-replication” value read?
A: The value was inactive: 5.29%.

Q: With CCC(=O)N1CCC2(CC1)Oc1ccc(Cl)cc1C(=O)C21CC(c2ccc(Cl)cc2)=NO1 (stereo unspecified) as the compound, how does the Potency read?
A: Its Potency is inconclusive [activator, partial curve, poor fit].

Q: For Cc1ccc(S(=O)(=O)NCC(c2cccnc2)N2CCN(Cc3ccccc3)CC2)cc1 (stereo unspecified), which “activity, positive = re-replication” value is on record?
A: Its value is inactive: 2.96%.

Q: Which Potency does the source give for N#CC1=C(N)OC2=C(C(=O)CCC2)C1C1CC=CCC1 (stereo unspecified) here?
A: The Potency was inconclusive [activator, single point].

Q: For Cc1cccc(N(Cc2cc3ccccc3[nH]c2=O)C(=O)c2cccs2)c1, which Potency is on record?
A: Its Potency is inconclusive [activator, partial curve, poor fit].

Q: With Cn1nc(C(F)(F)F)c(/C=N/OC(=O)c2ccccc2)c1Sc1ccc(Cl)cc1 as the compound, how does the “activity, positive = re-replication” value read?
A: The value was inactive: 2.31%.

Q: Which Potency does the source give for Cc1cccc(OCC(=O)NC2CCCc3ccccc32)c1C (stereo unspecified) here?
A: Its Potency is inconclusive [activator, single point].

Q: With COc1ccc(Cl)cc1NC(=O)CCNS(=O)(=O)c1cccc2nonc12 as the compound, how does the “activity, positive = re-replication” value read?
A: Its value is inactive: -24.5%.

Q: Which Potency does the source give for CCCCCc1ccc(C(=O)CCCC)c(=S)[nH]1 here?
A: Its Potency is inconclusive [activator, single point].

Q: Which “activity, positive = re-replication” value does the source give for CCCCC(CC)COS(=O)(=O)O (stereo unspecified) here?
A: The value was inactive: 0.271%.

Q: With Cc1c(N)cc[n+](CC(=O)c2ccccc2)c1C as the compound, how does the “activity, positive = re-replication” value read?
A: Its value is inactive: -14.1%.

Q: With CCCn1c(N/N=C\C=C\c2ccccc2)nc2c1c(=O)[nH]c(=O)n2C as the compound, how does the Potency read?
A: The Potency was inconclusive [activator, single point].

Q: With CCOc1ccccc1CNC(=O)CCC(=O)N1Cc2ccccc2Oc2ncccc21 as the compound, how does the “activity, positive = re-replication” value read?
A: The value was inactive: -0.834%.

Q: For CC(/C=N/NC(=O)c1nnn(-c2nonc2N)c1C(C)C)=C\c1ccco1, which Potency is on record?
A: The Potency was inconclusive [activator, single point].

Q: With O=C(O)CCCNS(=O)(=O)c1ccc2ccccc2c1 as the compound, how does the “activity, positive = re-replication” value read?
A: The value was inactive: -2.04%.

Q: With COc1ccc2cc(-c3[nH]ncc3CN3CCCC3c3nonc3C)ccc2c1 (stereo unspecified) as the compound, how does the Potency read?
A: The Potency was inconclusive [activator, single point].

Q: Which Potency does the source give for CCc1nc2ccc(C(=O)NCCCN3CCN(c4ccc(F)cc4)CC3)cc2nc1CC here?
A: The Potency was inconclusive [activator, single point].

Q: Which Potency does the source give for CCOC(=O)NCCc1c(C)nc2c(c(C)nn2C(C)(C)C)c1C here?
A: The Potency was inconclusive [activator, single point].

Q: With COc1ccc(CN2CCC(C(=O)Nc3ccc(Oc4cccnc4)cc3)CC2)cc1 as the compound, how does the Potency read?
A: Its Potency is inconclusive [activator, partial curve, poor fit].

Q: Which Potency does the source give for Cc1ccc2c(c1)/C(=C/c1ccc(F)cc1)C(=O)N2 here?
A: The Potency was inconclusive [activator, single point].

Q: Which “activity, positive = re-replication” value does the source give for O=C(NC1CCCCCCC1)c1ccc2c(c1)OCO2 here?
A: Its value is inactive: -2.4%.

Q: With CN(C(=S)Nc1ccc(F)cc1)C1(c2ccccc2Cl)CCCCC1=O (stereo unspecified) as the compound, how does the Potency read?
A: Its Potency is inconclusive [activator, single point].

Q: Which Potency does the source give for C=CCOc1cccc(C2C(C(=O)c3ccc(C)o3)=C(O)C(=O)N2c2nccs2)c1 (stereo unspecified) here?
A: Its Potency is inconclusive [activator, single point].

Q: For O=C(Nc1ccccc1)N1CCN(c2ccc(C(F)(F)F)cn2)CC1, which “activity, positive = re-replication” value is on record?
A: Its value is inactive: 1.11%.

Q: Which Potency does the source give for O=C(COc1ccccc1C(=O)O)NC1CCCc2ccccc21 (stereo unspecified) here?
A: Its Potency is inconclusive [activator, single point].

Q: Which Potency does the source give for N=c1c(C(=O)NC2CCCCC2)cc2c(=O)n3ccccc3nc2n1CCc1ccccc1 here?
A: Its Potency is active: 2.59 µM.

Q: Which “activity, positive = re-replication” value does the source give for Cc1nnc(SCC(=O)N(C)CC(=O)Nc2ccc(F)cc2)n1Cc1ccccc1 here?
A: Its value is inactive: -2.18%.

Q: Which Potency does the source give for O=c1[nH]c2c(s1)C=Nc1ccccc1N2 here?
A: The Potency was inconclusive [activator, single point].
